# Results published in the antibiotic and cytotoxicity screens of Wong et al. (2023).
# Some of the results follow.
# How the values were obtained:
# [1] = test system: HSkMC (human skeletal muscle cells); test: cytotoxicity call (relative viability < 0.9); conditions: 10 µM
# [2] = test system: HepG2; test: cytotoxicity call (relative viability < 0.9); conditions: 10 µM
# [3] = test system: S. aureus RN4220; test: growth inhibition call (relative growth <= 0.2); conditions: 50 µM
Structure (SMILES),cytotoxicity call [1],cytotoxicity call [2],growth inhibition call [3]
NC(=O)NCCC[C@H](N)C(=O)O,inactive,inactive,inactive
CN(C)C(=O)C[C@H]1C=C[C@H](NC(=O)C2CCOCC2)[C@@H](CO)O1,inactive,inactive,inactive
COc1ccccc1C#Cc1cnc2c(c1)C(=O)N([C@H](C)CO)C[C@H](C)[C@H](CN(C)C(=O)CN(C)C)O2,inactive,inactive,inactive
Cc1noc(C)c1NC(=O)Nc1ccc2c(c1)CC(=O)N([C@H](C)CO)C[C@H](C)[C@@H](CN(C)S(=O)(=O)c1cccs1)O2,inactive,inactive,inactive
CCCNC(=O)C[C@@H]1CC[C@@H]2[C@@H](COc3ccc(NS(=O)(=O)c4ccccc4C)cc3C(=O)N2C)O1,inactive,inactive,inactive
C[C@H]1CN([C@@H](C)CO)C(=O)Cc2cc(NS(=O)(=O)c3ccc(Cl)cc3)ccc2O[C@H]1CN(C)C,inactive,inactive,inactive
C[C@@H]1CCCCO[C@@H](CN(C)C(=O)Nc2ccccc2)[C@@H](C)CN([C@H](C)CO)C(=O)c2cc(NC(=O)Cc3ccccc3)ccc2O1,inactive,inactive,inactive
C[C@@H]1CN([C@H](C)CO)S(=O)(=O)c2ccc(Br)cc2O[C@H]1CN(C)C(=O)C1CCCCC1,inactive,inactive,inactive
CN(C)CCCNC(=O)C[C@@H]1CC[C@H]2[C@H](COc3ccc(NC(=O)NC4CCCC4)cc3C(=O)N2C)O1,inactive,inactive,inactive
Cc1cc(O)c(C=O)c2c1C(=O)Oc1c(C)c(O)c3c(c1O2)C(O)OC3=O (configuration not stated),inactive,inactive,inactive
C[C@@H]1CN([C@@H](C)CO)C(=O)c2cc(NS(C)(=O)=O)ccc2O[C@H]1CN(C)C(=O)Nc1ccc(F)cc1,inactive,inactive,inactive
CCCNC(=O)Nc1ccc2c(c1)OC[C@@H](C)N(Cc1ccc(-c3ccccn3)cc1)C[C@@H](C)[C@H](OC)CN(C)C2=O,inactive,inactive,inactive
C[C@H]1CN([C@@H](C)CO)C(=O)Cc2cc(NC(=O)Nc3cccc4ccccc34)ccc2O[C@@H]1CN(C)Cc1ccncc1,inactive,inactive,inactive
COc1ccc(S(=O)(=O)N(C)C[C@H]2OCCCC[C@H](C)Oc3ccc(NC(=O)NC4CCCCC4)cc3C(=O)N([C@@H](C)CO)C[C@H]2C)cc1,inactive,inactive,inactive
C[C@@H]1CN([C@@H](C)CO)C(=O)c2cc(NC(=O)Nc3ccccc3)ccc2O[C@@H]1CN(C)Cc1ccc(Oc2ccccc2)cc1,active,active,inactive
C[C@H]1CCCCO[C@H](CN(C)Cc2ccc3c(c2)OCO3)[C@@H](C)CN([C@@H](C)CO)C(=O)c2cc(NS(=O)(=O)c3ccc(F)cc3)ccc2O1,inactive,inactive,inactive
C[C@H](CO)N1C[C@H](C)[C@@H](CN(C)C(=O)CCCN(C)C)OCCCC[C@H](C)Oc2ccc(N(C)C)cc2C1=O,inactive,inactive,inactive
C[C@@H]1CN([C@@H](C)CO)C(=O)c2cc(NC(=O)CCCN(C)C)ccc2O[C@H]1CN(C)Cc1ccc(C(=O)O)cc1,inactive,inactive,inactive
CC1CCC2(C(=O)O)CCC3(C)C(=CCC4C5(C)CCC(O)C(C)(C)C5CCC43C)C2C1C (configuration not stated),active,active,inactive
Cc1noc(C)c1S(=O)(=O)N(C)C[C@@H]1Oc2ccc(NS(C)(=O)=O)cc2CC(=O)N([C@@H](C)CO)C[C@@H]1C,inactive,inactive,inactive
COc1ccc(NC(=O)N(C)C[C@H]2OCCCC[C@@H](C)Oc3ccc(NC(=O)NC(C)C)cc3C(=O)N([C@H](C)CO)C[C@@H]2C)cc1,inactive,inactive,inactive
C[C@H]1CN([C@@H](C)CO)C(=O)c2cccc(NC(=O)C3CC3)c2O[C@H]1CN(C)Cc1ccc(-c2ccccc2)cc1,inactive,inactive,inactive
CC(C)NC(=O)N(C)C[C@@H]1OCCCC[C@H](C)Oc2ccc(NS(=O)(=O)c3cn(C)cn3)cc2C(=O)N([C@@H](C)CO)C[C@@H]1C,inactive,inactive,inactive
CCCNC(=O)N1C[C@]2(CN(C2)S(=O)(=O)c2cccc(c2)OC)c2c(n(c3cc(ccc23)OC)C)[C@H]1CO,inactive,inactive,inactive
CCCNC(=O)N1C[C@]2(CCN(CC2)S(=O)(=O)c2ccccc2)c2c(n(c3cc(ccc23)OC)C)[C@@H]1CO,inactive,inactive,inactive
COC(=O)C1(C)CCCC2(C)c3ccc(O)c(C(C)C)c3CCC12 (configuration not stated),active,active,inactive
CO[C@@H]1CN(C)C(=O)c2cc(NC(=O)C3CCOCC3)ccc2OC[C@@H](C)N(CC2CCOCC2)C[C@H]1C,inactive,inactive,inactive

Structure (SMILES),cytotoxicity call [1],cytotoxicity call [2],growth inhibition call [3]
COc1ccc(S(=O)(=O)Nc2ccc3c(c2)CC(=O)N([C@@H](C)CO)C[C@H](C)[C@@H](CN(C)S(=O)(=O)c2cn(C)cn2)O3)cc1,inactive,inactive,inactive
C[C@@H]1CCCCO[C@H](CN(C)Cc2ccc(C(=O)Nc3ccccc3N)cc2)[C@@H](C)CN([C@@H](C)CO)C(=O)c2cc(N(C)C)ccc2O1,inactive,inactive,inactive
CO[C@@H](CN(C)S(=O)(=O)c1cccc(Cl)c1)[C@@H](C)CN([C@H](C)CO)S(=O)(=O)c1ccc(Cl)cc1,inactive,inactive,inactive
C[C@H](CO)N1C[C@H](C)[C@@H](CN(C)Cc2ccccc2)OCCCC[C@H](C)Oc2ccc(NS(=O)(=O)c3ccc(Cl)cc3)cc2C1=O,inactive,inactive,inactive
CC[C@H](C)[C@H]1O[C@]2(CC[C@@H]1C)C[C@@H]1C[C@@H](C/C=C(\C)[C@@H](O[C@H]3C[C@H](OC)[C@@H](O[C@H]4C[C@H](OC)[C@@H](O)[C@H](C)O4)[C@H](C)O3)[C@@H](C)/C=C/C=C3\CO[C@@H]4[C@H](O)C(C)=C[C@@H](C(=O)O1)[C@]34O)O2,active,active,inactive
C[C@@H]1CN([C@@H](C)CO)C(=O)c2cccc(NC(=O)Nc3ccc(C(F)(F)F)cc3)c2O[C@H]1CN(C)S(=O)(=O)c1ccc(Cl)cc1,inactive,inactive,inactive
COc1ccccc1S(=O)(=O)N[C@H]1CC[C@H](CCNC(=O)C2CCOCC2)O[C@@H]1CO,inactive,inactive,inactive
Cc1c(C(N)=O)cc([N+](=O)[O-])cc1[N+](=O)[O-],inactive,inactive,inactive
O=C(C[C@@H]1C[C@H]2c3cc(NC(=O)c4ccc5c(c4)OCO5)ccc3O[C@H]2[C@@H](CO)O1)NCCc1ccccc1,inactive,inactive,inactive
C[C@H](CO)N1C[C@H](C)[C@@H](CN(C)CC2CCCCC2)Oc2c(NC(=O)c3ccc(-c4nccs4)cc3)cccc2C1=O,inactive,inactive,inactive
COc1ccc(C#Cc2cnc3c(c2)C(=O)N([C@H](C)CO)C[C@H](C)[C@H](CN(C)C(=O)Nc2c(C)noc2C)O3)cc1OC,inactive,inactive,inactive
COCC(=O)Nc1ccc2c(c1)OC[C@H](C)N(C(=O)c1ccccc1F)C[C@H](C)[C@H](OC)CN(C)C2=O,inactive,inactive,inactive
Cc1noc(C)c1NC(=O)N(C)C[C@@H]1Oc2c(NC(=O)c3cnccn3)cccc2C(=O)N([C@H](C)CO)C[C@@H]1C,inactive,inactive,inactive
Cc1ccc(S(=O)(=O)N(C)C[C@H]2OCCCC[C@@H](C)Oc3ccc(NC(=O)CCC(F)(F)F)cc3C(=O)N([C@@H](C)CO)C[C@H]2C)cc1,inactive,inactive,inactive
C[Si](C)(C)C#CC(=O)NO,inactive,inactive,inactive
C[C@H]1CCCCO[C@@H](CN(C)C(=O)C2CCCCC2)[C@@H](C)CN([C@@H](C)CO)C(=O)c2cc(NC(=O)C3CCCCC3)ccc2O1,inactive,inactive,inactive
Cc1ccc(S(=O)(=O)Nc2ccc3c(c2)CC(=O)N([C@H](C)CO)C[C@H](C)[C@@H](CN(C)S(=O)(=O)c2cccs2)O3)cc1,inactive,inactive,inactive
C[C@H]1CN([C@@H](C)CO)C(=O)c2ccccc2-c2ccccc2CO[C@H]1CN(C)C(=O)Nc1ccc(-c2ccccc2)cc1,inactive,inactive,inactive
C[C@H](CO)N1C[C@H](C)[C@@H](CN(C)C(=O)Nc2ccc3c(c2)OCO3)Oc2c(NC(=O)Nc3ccc(C(F)(F)F)cc3)cccc2C1=O,active,inactive,inactive
O=C(O)[C@H]1O[C@@H](Oc2c(-c3ccc(O)c(O)c3)oc3cc(O)cc(O)c3c2=O)[C@H](O)[C@@H](O)[C@@H]1O,inactive,inactive,inactive
C[C@H]1CN([C@@H](C)CO)C(=O)c2cccc(NS(=O)(=O)c3cn(C)cn3)c2O[C@H]1CN(C)Cc1ccncc1,inactive,inactive,inactive
C[C@@H]1CN([C@@H](C)CO)C(=O)Cc2cc(NC(=O)CCN3CCOCC3)ccc2O[C@@H]1CN(C)S(=O)(=O)c1ccc(Cl)cc1,inactive,inactive,inactive
CNC(=O)CN1CCOC[C@]2(CCCN(C(=O)c3ccn(C)n3)C2)C1,inactive,inactive,inactive
CCN(CC)C(C)CN1c2ccccc2Sc2ccccc21.Cl (configuration not stated),inactive,active,inactive
COc1cccc(S(=O)(=O)N2C[C@H](O)COC[C@@H]3O[C@@H](CC(=O)N4CCN(c5ccccc5)CC4)CC[C@H]32)c1,inactive,inactive,inactive
C[C@H](CO)N1C[C@H](C)[C@H](CN(C)C(=O)c2ccc3c(c2)OCO3)Oc2cc(C#Cc3ccccc3F)ccc2S1(=O)=O,inactive,inactive,inactive
COc1ccc(S(=O)(=O)N[C@H]2C=C[C@@H](CC(=O)N3CCC(Cc4ccccc4)CC3)O[C@@H]2CO)cc1,inactive,inactive,inactive
